Molecules are shown by their SMILES. The campaign covered roughly 340,000 compounds. About 6,900 (2%) were called active. No stated cut-off is given here; in the data, active means inhibition above about 30%; inactive means below that, where a call was filed. This is a selection; strong and weak results do not stand in their true shares. Where no call is shown, the source filed none.

The target of this assay is D(2) dopamine receptor (Homo sapiens) (UniProt P14416). Briefly: HTS Assay for Allosteric Antagonists of the Human D2 Dopamine Receptor: Primary Screen for Antagonists. Further: 0% is about no effect. The settings on record: HEK293 TREx D2 cells, calcium flux, dopamine EC80; at 10 µM; stronger effect = higher value. The procedure, abridged: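 Tetracycline-induced HEK293 T-REx cells expressing D2 force-coupled to calcium signalling were dye-loaded, exposed to compound for 180 s, then challenged with an EC80 of dopamine; calcium flux was followed kinetically for a further 180 s.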
Sequence of UniProt P14416 (P14416 whole entry, looked up): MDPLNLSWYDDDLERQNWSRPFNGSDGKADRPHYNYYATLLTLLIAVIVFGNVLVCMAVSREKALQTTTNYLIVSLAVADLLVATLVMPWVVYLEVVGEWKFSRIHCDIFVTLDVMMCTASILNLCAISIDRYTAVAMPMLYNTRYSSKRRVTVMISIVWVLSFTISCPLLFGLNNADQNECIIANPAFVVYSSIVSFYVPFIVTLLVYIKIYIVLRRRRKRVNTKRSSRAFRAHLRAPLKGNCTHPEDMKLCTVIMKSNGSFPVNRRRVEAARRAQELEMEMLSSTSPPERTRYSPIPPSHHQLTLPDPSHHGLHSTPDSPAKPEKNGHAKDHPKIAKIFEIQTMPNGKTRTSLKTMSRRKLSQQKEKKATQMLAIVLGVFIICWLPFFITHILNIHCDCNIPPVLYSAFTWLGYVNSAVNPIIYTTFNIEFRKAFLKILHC
(In general: A change in cytosolic calcium serves as a functional read-out for many receptors and channels.)
With `COCCn1c(-c2ccccc2)c(C)n2c3c(=O)n(C)c(=O)n(C)c3nc12`, the inhibition (in general, the relative decrease from the control value, in per cent) is 4.55%.
Turning to `Cc1ccccc1OCCn1cc(C(=O)C2CCCCC2)c2ccccc21`, the inhibition amounted to 9.9%.
Turning to `COc1ccccc1-c1cc(C(=O)N2CCN(c3ccccc3)CC2)no1`, the inhibition is -3.8%.
Regarding `O=[N+]([O-])c1ncccc1OCc1ccccc1Br`, the inhibition was active: 34.3%.
On to `OC(COc1ccccc1F)CN1CCC(Cc2ccccc2)CC1` (configuration not stated), for which the inhibition was active: 64.8%.
Take `COc1ccc(NC(=O)C(c2ccccc2)N2Cc3ccccc3C2=O)cc1` (configuration not stated): the inhibition was -5.68%.
The value for `Cc1cc(C)c2c(=O)cc(C(=O)Nc3ccc(C)c(Cl)c3)oc2c1` was -25.2%; that for `CCc1ccc(C2=CC(c3cccc(C)c3)n3c(nc4ccccc43)N2)cc1` (configuration not stated) was 10.5%; that for `Cc1cccc(N(CC(=O)NCc2ccccc2)S(C)(=O)=O)c1C` was -7.52%.
The figure for `Cc1nnc(N2CCC(C(=O)NCCc3ccccc3)CC2)c2nn(-c3ccccc3)c(C)c12` is 8.32%.
Consider `O=C(Nc1ccc(OCc2cc(=O)n3ccsc3n2)cc1)c1ccc(F)cc1`, for which the inhibition was -4.24%.
The value for `COc1ccc(CNC(=O)CSCc2nc(-c3ccccc3F)oc2C)cc1` was -19.4%; that for `CCc1ccc(-c2nc(CN3CCC(C(=O)NCCc4ccc(C)cc4)CC3)c(C)o2)cc1` was -12.8%.
The figure for `O=C(CSc1nc2ccccc2n1Cc1ccc(F)cc1)N1CCN(c2ccc(F)cc2)CC1` is 4.34%; for `Cc1csc2nc(COC(=O)c3ccc(F)cc3)cc(=O)n12` it is 1.08%.
Consider `CCOC(=O)c1c(C)oc2nc(C)nc(Nc3cc(C)cc(C)c3)c12`, for which the inhibition amounted to 10.1%.
Consider `CC(=O)N1CCCc2cc(S(=O)(=O)N(CCN(C)C)Cc3ccccc3)ccc21`, for which the inhibition was -13.1%.
In the case of `CCc1ccc2oc(C(=O)NCC(c3ccc(Cl)cc3)N3CCOCC3)c(C)c2c1` (configuration not stated), the inhibition was 4.71%.
The value for `COc1ccc(-c2cc(OC(=O)c3ccccc3C)c3c(C)oc(C)c3c(=O)c2)cc1` was -2.19%; that for `CCc1cccc(C)c1NC(=O)c1cc(S(=O)(=O)N(C)Cc2ccccc2)ccc1F` was 16%; that for `CC1CC(C)CN(C(=O)COC(=O)c2ccc([N+](=O)[O-])o2)C1` (configuration not stated) was active: 31.3%.
The figure for `CCC(=O)Nc1ccccc1-c1nc2ccccc2n(Cc2cccc(Br)c2)c1=O` is 22.4%.
The figure for `Cn1c(=O)c2sccc2n2c(CCCC(=O)Nc3ccc(Cl)cc3)nnc12` is -19.8%.
As to `O=C(Nc1ccccc1Cl)c1ccc(F)c(S(=O)(=O)NCc2ccc(Cl)c(Cl)c2)c1`, the inhibition was -5.12%.
Regarding `CCOC(=O)c1sc(N2C(=O)c3oc4cc(C)c(C)cc4c(=O)c3C2c2ccc(C)cc2)nc1C` (configuration not stated), the inhibition stood at 1.16%.
As to `COc1ccc(CN2CCCN(CC(=O)Nc3cc(C)ccc3C)S2(=O)=O)cc1`, the inhibition turned out to be 1.82%.
The figure for `CCN(CCC(=O)Nc1cc([N+](=O)[O-])ccc1OC)Cc1ccccc1` is active: 78.9%; for `CC(=O)Nc1ccc(NC(=O)CCc2c(C)nc3c(c(C)nn3-c3ccc(C)cc3)c2C)cc1` it is 10.9%; for `CC(=O)Nc1ccccc1-c1nc2ccccc2n(C(C)C(=O)Nc2cc(Cl)ccc2C)c1=O` (configuration not stated) it is -25.1%.
Turning to `CCN(CC)S(=O)(=O)c1nnc(NC(=O)COc2ccc(C)cc2)s1`, the inhibition is 21.2%.
The value for `Cc1ccc(C)c(NC(=O)CSc2nnc(CNC(=O)c3ccccc3)n2-c2ccccc2)c1` was 23.8%; that for `CCOc1ccc(NC(=O)c2ccc(CN3C(=O)C(C)=C(c4ccc(C)cc4)S3(=O)=O)cc2)cc1` was 0.452%; that for `CCOc1cc(Cn2c(-c3ccc(O)c(OCC)c3)nc3ccccc32)ccc1O` was 14.4%.
The figure for `COc1ccc(-n2c(-c3ccccc3F)nc3c(cnn3-c3ccc(C)cc3)c2=O)cc1` is 5.18%; for `O=C(CC1C(=O)OCCN1Cc1ccccc1)Nc1cccc(Cl)c1` (configuration not stated) it is -3.02%.
Take `CCCCC(=O)N1CC(=O)Nc2ccc(F)cc2C1c1ccc(F)cc1` (configuration not stated): the inhibition was -0.815%.
`CCOc1ccc(CN2CCCC(CO)(Cc3ccc(F)cc3)C2)cc1` (configuration not stated): the inhibition was active: 68.1%.
The figure for `CCn1c(CNC(=O)C23CC4CC(CC(C4)C2)C3)nnc1SCC(=O)Nc1ccc(C)cc1` is 2.83%; for `CCOc1ccccc1NC(=O)CSc1nc2ccccc2nc1Cc1ccc(C)cc1` it is 8.76%; for `Cc1ccc2c(Sc3ccccc3)c(C(=O)NCc3ccccc3F)[nH]c2c1` it is 4.5%.
As to `Cc1nc2c3cccnc3nn2c(C)c1CCC(=O)NCc1ccccc1Cl`, the inhibition is -13.5%.
Take `CC(=O)c1ccc(NC(=O)c2sc(-n3nc(C)c(CCC(C)C)c3C)nc2C)cc1`: the inhibition came out at 12.2%.
The value for `CCCOc1cccc(C(=O)Nc2cc(-c3nc4ccccc4[nH]3)ccc2C)c1` was 13.4%; that for `COc1cc(OC)c(NC(=O)c2sc3nc4n(c(=O)c3c2C)CCCC4)cc1Cl` was 8.37%.
The value for `COc1ccc(S(=O)(=O)NCCc2sc(C)nc2C)cc1` was 4.81%; that for `COc1ccc(C(=O)CSc2nc3cc(C(=O)NC4CCCC4)ccc3c(=O)n2CC2CCCO2)cc1` (configuration not stated) was 3.46%.
The value for `Cc1ccccc1NC(=O)Nc1csc2c1CCCC2` was -20.5%.
In the case of `CCOc1ccc(CN2C(=O)c3ccccc3Sc3ccc(C(=O)NCc4ccc5c(c4)OCO5)cc32)cc1`, the inhibition was -13.2%.
Turning to `Cc1cccc(C(=O)N2CCNC(=O)C2CC(=O)Nc2ccc(F)cc2)c1` (configuration not stated), the inhibition is -6.77%.
For `COc1ccc(C)cc1NC(=O)C(NS(=O)(=O)c1cccs1)c1ccccc1` (configuration not stated), the inhibition was -2.58%.
For `COC(=O)c1cc2oc3ccccc3c2n1CC(=O)Nc1cccc(SC)c1`, the inhibition is -12.4%.
In the case of `COc1ccc(C2C(C(=O)Nc3ccccc3)=C(C)Nc3nc(-c4ccccc4)nn32)c(OC)c1` (configuration not stated), the inhibition was -5.89%.
Turning to `Cc1cccc(NC(=O)Cn2c(=O)n(CCc3ccccc3)c(=O)c3ccccc32)c1`, the inhibition was -0.928%.
As for `COc1cc(OC)c(NC(=O)Cc2c(C(=O)O)c(C)cn2C)cc1Cl`, the inhibition was 26.8%.
Regarding `CC(=O)N1CCCC1c1nc2ccccc2n1Cc1c(F)cccc1Cl` (configuration not stated), the inhibition amounted to 11.2%.
As for `CCc1ccc(OCC(=O)Nc2ccc(S(=O)(=O)Nc3onc(C)c3C)cc2)cc1`, the inhibition was -0.676%.
Consider `COc1ccc(OC2CCN(S(=O)(=O)c3cccc(F)c3)CC2)cc1`, for which the inhibition was -9.73%.
The value for `CCCCn1c(=O)c2oc3ccccc3c2n(CC(=O)Nc2cc(C)ccc2C)c1=O` was -20.6%; that for `Cc1ccc(CNC(=O)Cc2c(C(=O)O)c(C)cn2C)cc1` was 13.2%.
For the molecule `Cc1nc2ccn(Cc3cccnc3)c(=O)c2cc1C(=O)NCc1ccccc1`, the inhibition was -1.88%.
The figure for `O=C(CSc1nnc(-c2ccccc2Br)n1-c1ccccc1)c1ccc(F)cc1` is 2.71%; for `O=C(NC1CCCC1)c1ccc(CSc2nc3cccnc3n2Cc2cccc(F)c2)cc1` it is 0.881%; for `O=c1[nH]c(SCc2ccccc2)nc2c1CCCC2` it is -4.74%.
The figure for `COC(=O)c1ccc(OCC2c3cc(OC)c(OC)cc3CCN2C(=O)c2ccc(OC)cc2)cc1` (configuration not stated) is 3.26%; for `COc1cc(OC)c(NC(=O)NCCn2nnc3cc(S(=O)(=O)N(C)C)ccc32)cc1Cl` it is 5.84%; for `COc1ccc(-c2nn3c(=O)cc(CN4CCN(C(=O)Nc5cc(C)ccc5C)CC4)nc3s2)cc1` it is -13.3%.
The figure for `CCCCSCCCNC(=O)C1CCN(Cc2nc(-c3ccc(CC)cc3)oc2C)CC1` is -14%; for `Cc1cccc(N2CCN(C(=O)c3sc4nc5n(c(=O)c4c3C)CCC5)CC2C)c1` (configuration not stated) it is -18.5%.
Turning to `CCOc1ccc(CCNC(=O)C(CC)n2nc(C)c3c(C)n(-c4ccccc4)nc3c2=O)cc1` (configuration not stated), the inhibition was -9.41%.
`Cc1cc(-c2ccc(S(=O)(=O)Nc3cccc(C)c3C)s2)on1`: the inhibition is -1.26%.
The value for `O=C(NCC1CCCO1)c1cc2c([nH]c3ccccc32)c(-c2cccc(Br)c2)n1` (configuration not stated) was active: 33.8%.
The figure for `CCOC(=O)c1c(C)[nH]c(C)c1S(=O)(=O)N1CCC(C(=O)NCc2ccc(F)cc2)CC1` is 2.83%; for `COc1ccc(-c2c(C#N)c(SCC(=O)Nc3ccc(C)c(C)c3)nc(C)c2C(=O)Nc2ccc(Cl)cc2)cc1` it is 0.482%.
In the case of `Cc1nc2sccn2c(=O)c1S(=O)(=O)Nc1ccc(N2CCN(C)CC2)cc1`, the inhibition is 14.3%.
The figure for `Clc1ccc2nc(C3CCN(Cc4ccccc4)CC3)[nH]c2c1` is active: 52.5%.
With `Cc1oc(-c2ccccc2Cl)nc1CS(=O)CC(=O)N1CCN(c2cccc(C(F)(F)F)c2)CC1` (configuration not stated), the inhibition is 11.4%.
The value for `CC(=O)c1ccc(N2CCN(C(=O)CN3C(=O)NC4(CCCCC4)C3=O)CC2)c(F)c1` was active: 30.7%; that for `CCOc1ccccc1CNC(=O)c1ccc2c(c1)N(CC)CCS2` was -8.82%; that for `COc1cccc(CNC(=O)C(Cc2ccccc2)NS(=O)(=O)c2ccc3c(c2)CCN3C(C)=O)c1` (configuration not stated) was -5.37%.
Consider `CCOc1cc2c(cc1OCC)C(CC(=O)OC)N(C(=O)Nc1cc(C)cc(C)c1)CC2` (configuration not stated), for which the inhibition came to 2.1%.
For `O=C(/C=C/c1ccco1)N1CCCC(c2ccccc2)C1` (configuration not stated), the inhibition was active: 55.8%.
The figure for `Cc1ccc(NC(=O)CCc2nc(-c3ccccc3F)no2)c(C)c1` is -15%; for `COc1cc(C(=O)Nc2sc3c(c2C#N)CCCC3)c(Br)c(OC)c1OC` it is 4.65%.
Take `CS(=O)(=O)c1ncc(Cl)c(C(=O)N(Cc2ccc(Cl)cc2)Cc2ccco2)n1`: the inhibition was -19.8%.
Take `Cc1cc(OCCCCCN2CCCC2)ccc1Cl`: the inhibition was active: 58.8%.
The value for `Cc1ccc(-c2noc(-c3nnn(CC(=O)Nc4ccc(C)cc4Cl)c3N)n2)cc1` was 2.89%.
The value for `Cc1cc(C)cc(NS(=O)(=O)c2ccc3[nH]cc(C(=O)N4CCCCC4)c(=O)c3c2)c1` was -0.69%; that for `O=C(COCc1cc(-c2ccc3c(c2)OCO3)on1)N1CCCCC1` was active: 77.7%.
`Cc1noc(-c2ccc(N3CCCCC3C)c([N+](=O)[O-])c2)n1` (configuration not stated): the inhibition was -9.45%.
The value for `COc1cc(Cl)c(C)cc1NC(=O)c1c(C)oc2nc(C)nc(N3CCCC3)c12` was 0.28%; that for `CCc1nnc(NC(=O)CSc2nccn2Cc2ccccc2)s1` was -3.77%.
In the case of `O=C1CCCc2cc(S(=O)(=O)N3CCCC(C(=O)NCc4ccccc4Cl)C3)ccc2N1` (configuration not stated), the inhibition is 8.58%.
Take `COc1ccc(CCNS(=O)(=O)c2cc3c4c(c2)CC(=O)N4CCC3)cc1`: the inhibition was active: 34.7%.
As for `Cn1c(CCCOc2ccc(Cl)cc2Cl)nnc1SCC(=O)Nc1nccs1`, the inhibition was active: 31.9%.
In the case of `CC(C)CCNC(=O)c1c[nH]c2ccc(S(=O)(=O)Nc3cccc(C(F)(F)F)c3)cc2c1=O`, the inhibition was 13%.
Consider `COc1ccccc1CNC(=O)C1CCN(c2ncnc3c2nc2n3CCCCC2)CC1`, for which the inhibition came out at 9.14%.
For the molecule `CCc1ccc(-n2c3nc(=O)[nH]c(=O)c-3cc3c(C)nn(-c4ccccc4)c32)cc1`, the inhibition stood at 14.3%.

The record behind these values is PubChem BioAssay AID485344 (National Center for Advancing Translational Sciences (NCATS), 2010).
